From PubChem BioAssay AID886 (National Center for Advancing Translational Sciences (NCATS), 2007)
“And” between values parts separate entries of the source, which are not always exact repeats. Equal entries are not always repeated. About 2,500 (3.4%) of roughly 73,000 compounds were called active. The inconclusive results got no clear call from the source; some entries with a clear call stand among them for comparison. Calls come from the whole dose curve; as a rule, active = well fitted inhibition curve with a large enough effect; inconclusive = small, poorly fitted or top-dose-only effect; inactive = no such curve, though single readings can be large or run the other way. A potency beside an inconclusive call is a rough fit, not a confirmed value. A structure can be active in one record and inactive in another.

These molecules were tested against 3-hydroxyacyl-CoA dehydrogenase type-2 (Homo sapiens) (UniProt Q99714) (assay: qHTS Assay for Inhibitors of HADH2 (Hydroxyacyl-Coenzyme A Dehydrogenase, Type II)). Settings: recombinant HADH2, NADH fluorescence, beta-hydroxybutyryl-CoA; activity change, negative = inhibition: at 57.1 µM (top of the series).
In short: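 Activity measured as NADH fluorescence gain (360/450 nm), taken as the change between first and last reads of a 4-min kinetic run. Conditions: pH 9.0 Tris buffer, 20 nM E. coli-expressed His-tagged enzyme, 1 mM NAD+, 90 uM beta-hydroxybutyryl-CoA; 15-min compound preincubation.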
% is set by controls: 0 for no effect and ±100 for the full control effect; potency is the fitted concentration of half-maximal effect; tags give direction and shape of the fitted curve.
Note: nearly all actives have a fitted effect of over 60% in size.

Sequence of UniProt Q99714 (Q99714 whole entry, looked up): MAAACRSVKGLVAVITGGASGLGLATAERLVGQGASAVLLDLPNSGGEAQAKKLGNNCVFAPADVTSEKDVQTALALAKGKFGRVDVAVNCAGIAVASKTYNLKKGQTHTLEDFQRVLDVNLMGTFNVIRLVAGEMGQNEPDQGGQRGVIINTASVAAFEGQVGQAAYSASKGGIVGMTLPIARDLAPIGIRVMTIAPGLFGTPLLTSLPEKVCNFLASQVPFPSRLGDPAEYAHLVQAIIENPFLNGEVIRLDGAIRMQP
Sequence of UniProt Q99714 (Q99714 whole entry, looked up): as above

Row | SMILES | Potency | activity change, negative = inhibition
1 | CS(=O)(=O)Nc1ccc(C(=O)NCCSCc2ccco2)cc1 | inconclusive: 20 µM [inhibitor, single point] | 
2 | CCc1cccc2nc3c(c([Si](CC)(CC)CC)c12)Cn1c-3cccc1=O | inconclusive: 39.8 µM [inhibitor, single point] | 
3 | Cc1ccccc1-c1nc(NCCN2CCOCC2)c2ccccc2n1 | active: 6.31 µM | 
4 | Cc1cc(=O)[nH]c(SCC(=O)N2CCN(C(c3ccccc3)c3ccccc3)CC2)n1 | inactive | 
5 | COc1ccc(N2CCN(Cc3nc4c(c(=O)n(C)c(=O)n4C)n3Cc3ccccc3C)CC2)cc1 | inactive | 
6 | C=CCOc1ccc(C(=O)N(Cc2ccc(N(C)C)cc2)C2CCS(=O)(=O)C2)cc1 (centres undefined) | inconclusive: 5.01 µM [inhibitor, single point] | 
7 | NCCC(=O)O | inactive | 
8 | CCOC(=O)N1CCC(NC(=O)Cn2ncc3c4ccccc4n(C)c3c2=O)CC1 | inconclusive: 25.1 µM [inhibitor, single point] | 
9 | Cn1c(SCC(=O)N(C2CCCCC2)C2CCCCC2)nnc1-c1cccs1 | inactive | 
10 | CCCCCCCCCCCCCCCCOC[C@@H](COCC(F)(F)F)OP(=O)(O)OCO | inconclusive: 39.8 µM [inhibitor, single point] | 
11 | CCNc1ncc2ncc(=O)n(C[C@H]3CCCO3)c2n1 | active: 25.1 µM | 
12 | [O-]/[N+](=C\c1ccncc1)c1ccc(Br)cc1 | inconclusive: 3.16 µM [inhibitor, full curve] | 
13 | Cc1nc2nc(SCC(=O)N3CCOCC3)nn2c(C)c1Cc1c(F)cccc1Cl | inactive | 
14 | CCN(CC)CCCC(C)n1c(-c2ccccc2)nc2c(NC3CCCCC3)nc(C)nc21 (centres undefined) | inactive | 
15 | N#CC1=C(C2CC2)CC(c2ccccc2)C(C#N)=C1N (centres undefined) | inconclusive: 10 µM [inhibitor, partial curve] | 
16 | Nc1ccc(Sc2nnnn2-c2ccccc2)c(Cl)c1 | inactive | 
17 | Nc1ccnc(C(F)(F)F)c1C(=O)c1ccccc1 | inconclusive: 7.94 µM [inhibitor, single point] | 
18 | COc1ccc2c(C=Nc3c(C)n(C)n(-c4ccccc4)c3=O)c(O)n(Cc3ccco3)c(=O)c2c1 | inactive | 
19 | CCOc1ccc2nc(N)sc2c1 | inconclusive: 31.6 µM [inhibitor, partial curve] | 
20 | COc1ccc(C#CC2C=CC(Oc3cc(C)cc(C)c3)C(CO)O2)cc1 (centres undefined) |  | inactive: 0.325% [at 11.4 µM]
21 | CCOC(=O)N1CCN(C(=O)c2ccc3c(SCC(=O)O)c4c(nc3c2)CCCC4)CC1 | inconclusive: 31.6 µM [inhibitor, single point] | 
22 | N#Cc1ccccc1OC[C@H](O)CNCCNC(=O)Nc1ccccc1 | inactive | 
23 | CS(=O)(=O)N1CCCC(C(=O)NCc2ccc(F)cc2)C1 (centres undefined) | inactive | 
24 | COC1=CC(=O)C[C@@H](C)[C@]12Oc1c(Cl)c(OC)cc(OC)c1C2=O | active: 31.6 µM | 
25 | COC(=O)c1ccc(Cn2cnc3c(cnn3-c3ccc(C)c(C)c3)c2=O)o1 | inconclusive: 39.8 µM [inhibitor, single point] | 

Row | SMILES | Potency | activity change, negative = inhibition
26 | Oc1cccc(O)c1O | active: 0.631 µM | 
27 | COCc1cc(=O)n2[nH]c(C)cc2n1 | active: 25.1 µM | 
28 | Nc1ccc2c(c1)CCC2=O | inconclusive: 20 µM [inhibitor, single point] | 
29 | Cc1ccc2nc(-c3ccc(SCC(=O)Nc4cc(C)on4)nc3)[nH]c2c1 | inconclusive: 39.8 µM [inhibitor, single point] | 
30 | CC(C)(C)c1cc(/C=C(\C#N)C(N)=S)cc(C(C)(C)C)c1O | active: 12.6 µM | 
31 | O=C1C2C3C=CC(C3)C2C(=O)N1c1cccc(-c2nc3ccccc3o2)c1 (centres undefined) | inconclusive: 39.8 µM [inhibitor, single point] | 
32 | CCCCSc1nc2c(cc1C#N)CCC2 | inconclusive: 31.6 µM [inhibitor, single point] | 
33 | Cc1cc(-c2ccccc2)nc2cc(C(N)=O)nn12 | active: 31.6 µM | 
34 | COc1ccc2[nH]c(C)c(CN3CCCC(C)C3)c(=O)c2c1 (centres undefined) | inactive | 
35 | CCCn1c(=O)c(Cc2ccccc2)c(O)c2ccccc21 | inconclusive: 39.8 µM [inhibitor, single point] | 
36 | CCOC(=O)N1CCN(C(=O)c2ccc(NC(=O)c3ccc(C)cc3)cc2)CC1 | inactive | 
37 | CCC1Oc2ccc(Cl)cc2N(CC(=O)O)C1=O (centres undefined) | inconclusive: 31.6 µM [inhibitor, single point] | 
38 | C[C@H](NC(=O)/C(C#N)=C/c1ccc(O)c(O)c1)c1ccccc1 | active: 15.8 µM | 
39 | C=CCn1c(-c2ccccc2)nc2nc3ccccc3nc21 | active: 25.1 µM | 
40 | CC(=O)Nc1nc(-c2cccs2)cs1 | inconclusive: 25.1 µM [inhibitor, single point] | 
41 | Cc1cc(C2C(C#N)=C(N)SC(N)=C2C#N)c(C)s1 | inconclusive: 5.01 µM [inhibitor, partial curve] | 
42 | Nc1c(S(=O)(=O)O)cc(Nc2cccc(S(N)(=O)=O)c2)c2c1C(=O)c1ccccc1C2=O | inconclusive: 5.01 µM [inhibitor, single point] | 
43 | C[C@H]1[C@@H](O)[C@@H](C)\C=C/C=C\C=C/C=C\C=C/C=C\C=C/[C@@H](O[C@H]2O[C@@H](C)[C@@H](O)[C@@H](N)[C@@H]2O)C[C@@H]2O[C@](O)(C[C@@H](O)C[C@@H](O)[C@@H](O)CC[C@@H](O)C[C@@H](O)CC(=O)O[C@H]1C)C[C@@H](O)[C@H]2C(=O)O (stereo in doubt) | inconclusive: 15.8 µM [inhibitor, single point] | 
44 | Nc1ccc2c(C(F)(F)F)cc(=O)oc2c1 | inactive | 
45 | Cc1ccc(C(=O)CSc2nnc(COc3cccc4cccnc34)o2)cc1 | inactive | 
46 | C=CCOC(=O)/C=C/NC(=O)/C=C/C=C/CCCCCCCC(C)O (centres undefined) |  | inactive: 0.448% [at 11.4 µM] and inactive: 8.29% [at 11.4 µM]
47 | COc1ccc2ccccc2c1C(O)c1nccn1C (centres undefined) | inconclusive: 0.631 µM [inhibitor, full curve] | 
48 | Oc1ccc2ccccc2c1CN(Cc1c(O)ccc2ccccc12)C1CCCCC1 | inconclusive: 3.98 µM [inhibitor, single point] | 
49 | O=C1C(=C2CCCCC2)SC(=S)N1Cc1ccco1 | active: 1.26 µM | 
50 | CN(C)c1ccc(C(=O)Nc2ccc(S(=O)(=O)NC3=NCCCCC3)cc2)cc1 | inconclusive: 3.16 µM [inhibitor, partial curve] | 

Row | SMILES | Potency | activity change, negative = inhibition
51 | CCOc1cc(S(=O)(=O)N2CCC(Cc3ccccc3)CC2)c(OCC)cc1-n1cnnn1 | inconclusive: 25.1 µM [inhibitor, single point] | 
52 | Cc1ccc(-c2csc3ncnc(Sc4nnc(CN5CCCCCC5=O)o4)c23)cc1 | inconclusive: 39.8 µM [inhibitor, single point] | 
53 | Nc1nc(-c2ccc(Br)s2)c(Br)s1 | active: 25.1 µM | 
54 | Cc1cc(C)cc(OCC(=O)Nc2nonc2NC(=O)COc2cc(C)cc(C)c2)c1 | inconclusive: 39.8 µM [inhibitor, single point] | 
55 | N#Cc1nc(-c2ccco2)oc1N1CCc2ccccc2C1 | inconclusive: 31.6 µM [inhibitor, single point] | 
56 | COCCNc1ncncc1-c1c(C)noc1C | inconclusive: 20 µM [inhibitor, single point] | 
57 | CCOc1cc2[nH]c(=O)n(CCCCC(=O)NC3CCCCCC3)c(=O)c2cc1OCC | inactive | 
58 | COc1cccc(C(=O)Nc2c(C(N)=O)oc3ccccc23)c1 | inconclusive: 39.8 µM [inhibitor, single point] | 
59 | Cc1ccccc1OCCN1C(=O)NC2(CCc3ccccc32)C1=O (centres undefined) | inconclusive: 3.98 µM [inhibitor, single point] | 
60 | COc1cccc(NC(=O)CCSc2nnc3scc(-c4ccccc4)n23)c1 | inactive | 
61 | CCN1CCN(c2cc(C)c3cc(NC(=O)Cc4ccc(OC)c(OC)c4)ccc3n2)CC1 | active: 25.1 µM | 
62 | CCOC(=O)CN(C(=O)CSc1nnc(CNc2ccc(C)cc2C)o1)c1ccccc1 | inconclusive: 39.8 µM [inhibitor, single point] | 
63 | COc1ccc(N2Cc3ccccc3C2)cc1Cl | inconclusive: 39.8 µM [inhibitor, single point] | 
64 | O=C(O)c1ccccc1Nc1cccc(OCc2ccc3ccccc3n2)c1 | inconclusive: 39.8 µM [inhibitor, single point] | 
65 | Cn1c(C(=O)NC2CC2)cc2c(=O)n(C)c3ccccc3c21 | inconclusive: 31.6 µM [inhibitor, single point] | 
66 | CN(C)/C=N/c1cnc(C(=O)c2ccc(Cl)cc2)n1C | inconclusive: 0.0398 µM [inhibitor, full curve, poor fit] | 
67 | CC(C)(C)OC(=O)c1c(N)n(CCCN2CCCC2=O)c2nc3ccccc3nc12 | inconclusive: 39.8 µM [inhibitor, single point] | 
68 | Cc1cc(C(=O)Nc2sc3c(c2C#N)CCCCC3)cs1 | active: 15.8 µM | 
69 | CCCCn1c2nc3ccccc3nc2c2c(=N)oc(C)nc21 | inconclusive: 39.8 µM [inhibitor, single point] | 
70 | CCOC(=O)CC1(CC(=O)OCC)NC(=O)c2c(C)sc(C(=O)OCC)c2N1 | active: 25.1 µM | 
71 | CCCN=Cc1sc2ccc(OCC)cc2c1O | active: 25.1 µM | 
72 | N#CC1=C(N)n2c(s/c(=C\c3ccco3)c2=O)=C(C#N)C1c1ccco1 (centres undefined) | inconclusive: 39.8 µM [inhibitor, single point] | 
73 | C=CCSC[C@@H]1Nc2cc(Cl)c(S(N)(=O)=O)cc2S(=O)(=O)N1 | inactive | 
74 | Oc1ccc(O)c2c(O)cccc12 | active: 1.26 µM | 
